Reference: the supplement of paper PMC8728848
Some of the results follow.

Assays:
Assay in all cases: glycan array binding signal (z-score within array); higher = stronger binding
Conditions in all cases: glycan notation: IUPAC condensed, linker removed
[1] = molecular target: Gal(a1-3)Gal(b1-4)[Fuc(a1-3)]GlcNAc(b1-2)Man(a1-3)[Gal(a1-3)Gal(b1-4)[Fuc(a1-3)]GlcNAc(b1-2)Man(a1-6)]Man(b1-4)GlcNAc(b1-4)GlcNAc
Summary of the method: (§1)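 The Consortium for Functional Glycomics database supplied 3228 glycan arrays, of which those lacking an available protein sequence were dropped. The binding signal, a within-array Z-score, was averaged across arrays of the same protein sequence and across linkers. Negative scores can be read as non-binding.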

Gal(a1-3)GalNAc = molecular target: Gal(a1-3)GalNAc
Summary of the method: as §1

[2] = molecular target: Gal(a1-3)[Gal(a1-4)]Gal(b1-4)GlcNAc
Summary of the method: as §1

[3] = molecular target: Gal(a1-4)Gal(b1-3)GlcNAc(b1-2)Man(a1-3)[Gal(a1-4)Gal(b1-3)GlcNAc(b1-2)Man(a1-6)]Man(b1-4)GlcNAc(b1-4)GlcNAc
Summary of the method: as §1

Gal(a1-4)Gal(b1-4)Glc = molecular target: Gal(a1-4)Gal(b1-4)Glc
Summary of the method: as §1

Gal(a1-4)Gal(b1-4)GlcNAc = molecular target: Gal(a1-4)Gal(b1-4)GlcNAc
Summary of the method: as §1

[4] = molecular target: Gal(a1-4)Gal(b1-4)GlcNAc(b1-2)Man(a1-3)[Gal(a1-4)Gal(b1-4)GlcNAc(b1-2)Man(a1-6)]Man(b1-4)GlcNAc(b1-4)GlcNAc
Summary of the method: as §1

[5] = molecular target: Gal(a1-4)Gal(b1-4)GlcNAc(b1-3)Gal(b1-4)Glc
Summary of the method: as §1

Gal(a1-4)GlcNAc = molecular target: Gal(a1-4)GlcNAc
Summary of the method: as §1

Gal(a1-6)Glc = molecular target: Gal(a1-6)Glc
Summary of the method: as §1

Gal(b1-2)Gal = molecular target: Gal(b1-2)Gal
Summary of the method: as §1

Gal(b1-3)Gal = molecular target: Gal(b1-3)Gal
Summary of the method: as §1

Gal(b1-3)Gal(b1-4)GlcNAc = molecular target: Gal(b1-3)Gal(b1-4)GlcNAc
Summary of the method: as §1

[6] = molecular target: Gal(b1-3)Gal(b1-4)GlcNAc(b1-2)Man(a1-3)[Gal(b1-3)Gal(b1-4)GlcNAc(b1-2)Man(a1-6)]Man(b1-4)GlcNAc(b1-4)GlcNAc
Summary of the method: as §1

Gal(b1-3)GalNAc = molecular target: Gal(b1-3)GalNAc
Summary of the method: as §1

[7] = molecular target: Gal(b1-3)GalNAc(a1-3)[Fuc(a1-2)]Gal(b1-4)Glc
Summary of the method: as §1

[8] = molecular target: Gal(b1-3)GalNAc(a1-3)[Fuc(a1-2)]Gal(b1-4)GlcNAc
Summary of the method: as §1

[9] = molecular target: Gal(b1-3)GalNAc(b1-3)Gal(a1-4)Gal(b1-4)Glc
Summary of the method: as §1

[10] = molecular target: Gal(b1-3)GalNAc(b1-4)Gal(b1-4)Glc
Summary of the method: as §1

[11] = molecular target: Gal(b1-3)GalNAc(b1-4)[Neu5Ac(a2-3)]Gal(b1-4)Glc
Summary of the method: as §1

Gal(b1-3)GlcNAc = molecular target: Gal(b1-3)GlcNAc
Summary of the method: as §1

[12] = molecular target: Gal(b1-3)GlcNAc(a1-6)Gal(b1-4)GlcNAc
Summary of the method: as §1

[13] = molecular target: Gal(b1-3)GlcNAc(b1-2)Man(a1-3)[Gal(b1-3)GlcNAc(b1-2)Man(a1-6)]Man(b1-4)GlcNAc(b1-4)GlcNAc
Summary of the method: as §1

[14] = molecular target: Gal(b1-3)GlcNAc(b1-2)Man(a1-3)[Gal(b1-3)GlcNAc(b1-2)Man(a1-6)]Man(b1-4)GlcNAc(b1-4)[Fuc(a1-6)]GlcNAc
Summary of the method: as §1

[15] = molecular target: Gal(b1-3)GlcNAc(b1-2)[Gal(b1-3)GlcNAc(b1-6)]Man(a1-6)[Gal(b1-3)GlcNAc(b1-2)Man(a1-3)]Man(b1-4)GlcNAc(b1-4)GlcNAc
Summary of the method: as §1

[16] = molecular target: Gal(b1-3)GlcNAc(b1-3)Gal(b1-3)GlcNAc
Summary of the method: as §1

[17] = molecular target: Gal(b1-3)GlcNAc(b1-3)Gal(b1-4)Glc
Summary of the method: as §1

[18] = molecular target: Gal(b1-3)GlcNAc(b1-3)Gal(b1-4)GlcNAc
Summary of the method: as §1

[19] = molecular target: Gal(b1-3)GlcNAc(b1-3)Gal(b1-4)GlcNAc(b1-6)[Gal(b1-3)GlcNAc(b1-3)]Gal(b1-4)Glc
Summary of the method: as §1

[20] = molecular target: Gal(b1-3)GlcNAc(b1-3)Gal(b1-4)[Fuc(a1-3)]GlcNAc(b1-6)[Gal(b1-3)GlcNAc(b1-3)]Gal(b1-4)Glc
Summary of the method: as §1

[21] = molecular target: Gal(b1-3)GlcNAc(b1-3)GalNAc
Summary of the method: as §1

[22] = molecular target: Gal(b1-3)GlcNAc(b1-6)Gal(b1-4)GlcNAc
Summary of the method: as §1

[23] = molecular target: Gal(b1-3)[Fuc(a1-4)]GlcNAc
Summary of the method: as §1

[24] = molecular target: Gal(b1-3)[Fuc(a1-4)]GlcNAc(b1-2)Man(a1-3)[Gal(b1-3)[Fuc(a1-4)]GlcNAc(b1-2)Man(a1-6)]Man(b1-4)GlcNAc(b1-4)GlcNAc
Summary of the method: as §1

[25] = molecular target: Gal(b1-3)[Fuc(a1-4)]GlcNAc(b1-2)Man(a1-3)[Gal(b1-3)[Fuc(a1-4)]GlcNAc(b1-2)Man(a1-6)]Man(b1-4)GlcNAc(b1-4)[Fuc(a1-6)]GlcNAc
Summary of the method: as §1

[26] = molecular target: Gal(b1-3)[Fuc(a1-4)]GlcNAc(b1-3)Gal(b1-3)[Fuc(a1-4)]GlcNAc
Summary of the method: as §1

[27] = molecular target: Gal(b1-3)[Fuc(a1-4)]GlcNAc(b1-3)Gal(b1-4)GlcNAc
Summary of the method: as §1

[28] = molecular target: Gal(b1-3)[Fuc(a1-4)]GlcNAc(b1-3)Gal(b1-4)[Fuc(a1-3)]GlcNAc
Summary of the method: as §1

[29] = molecular target: Gal(b1-3)[GlcNAc(b1-6)]GalNAc
Summary of the method: as §1

[30] = molecular target: Gal(b1-3)[Neu5Ac(a2-6)]GalNAc
Summary of the method: as §1

[31] = molecular target: Gal(b1-3)[Neu5Ac(a2-6)]GlcNAc(b1-6)Gal(b1-4)Glc
Summary of the method: as §1

[32] = molecular target: Gal(b1-3)[Neu5Ac(b2-6)]GalNAc
Summary of the method: as §1

Gal(b1-4)Gal = molecular target: Gal(b1-4)Gal
Summary of the method: as §1

[33] = molecular target: Gal(b1-4)GalNAc(a1-3)[Fuc(a1-2)]Gal(b1-4)GlcNAc
Summary of the method: as §1

[34] = molecular target: Gal(b1-4)GalNAc(b1-3)[Fuc(a1-2)]Gal(b1-4)GlcNAc
Summary of the method: as §1

B1: BC2L-A (Burkholderia cenocepacia), Q1BKJ8_BURCA (protein)
chain: ADSQTSSNRAGEFSIPPNTDFRAIFFANAAEQQHIKLFIGDSQEPAAYHKLTTRDGPREATLNSGNGKIRFEVSVNGKPSATDARLAPINGKKSDGSPFTVNFGIVVSEDGHDSDYNDGIVVLQWPIG
[1]
  glycan array binding signal (z-score): -0.262
Gal(a1-3)GalNAc
  glycan array binding signal (z-score): -0.296
[2]
  glycan array binding signal (z-score): -0.291
[3]
  glycan array binding signal (z-score): 0.533
Gal(a1-4)Gal(b1-4)Glc
  glycan array binding signal (z-score): -0.291
Gal(a1-4)Gal(b1-4)GlcNAc
  glycan array binding signal (z-score): -0.293
[4]
  glycan array binding signal (z-score): -0.217
[5]
  glycan array binding signal (z-score): -0.296
Gal(a1-4)GlcNAc
  glycan array binding signal (z-score): -0.291
Gal(a1-6)Glc
  glycan array binding signal (z-score): -0.293
Gal(b1-2)Gal
  glycan array binding signal (z-score): -0.288
Gal(b1-3)Gal
  glycan array binding signal (z-score): -0.293
Gal(b1-3)Gal(b1-4)GlcNAc
  glycan array binding signal (z-score): -0.299
[6]
  glycan array binding signal (z-score): -0.212
Gal(b1-3)GalNAc
  glycan array binding signal (z-score): -0.294
[7]
  glycan array binding signal (z-score): -0.289
[8]
  glycan array binding signal (z-score): -0.269
[9]
  glycan array binding signal (z-score): 0.063
[10]
  glycan array binding signal (z-score): -0.273
[11]
  glycan array binding signal (z-score): -0.268
Gal(b1-3)GlcNAc
  glycan array binding signal (z-score): -0.29
[12]
  glycan array binding signal (z-score): -0.22
[13]
  glycan array binding signal (z-score): 0.826
[14]
  glycan array binding signal (z-score): 0.112
[15]
  glycan array binding signal (z-score): 0.443
[16]
  glycan array binding signal (z-score): -0.295
[17]
  glycan array binding signal (z-score): -0.285
[18]
  glycan array binding signal (z-score): -0.054
[19]
  glycan array binding signal (z-score): -0.22
[20]
  glycan array binding signal (z-score): -0.22
[21]
  glycan array binding signal (z-score): -0.217
[22]
  glycan array binding signal (z-score): -0.219
[23]
  glycan array binding signal (z-score): -0.083
[24]
  glycan array binding signal (z-score): 0.136
[25]
  glycan array binding signal (z-score): 1.63
[26]
  glycan array binding signal (z-score): 0.051
[27]
  glycan array binding signal (z-score): -0.149
[28]
  glycan array binding signal (z-score): -0.086
[29]
  glycan array binding signal (z-score): 0.063
[30]
  glycan array binding signal (z-score): -0.061
[31]
  glycan array binding signal (z-score): -0.291
[32]
  glycan array binding signal (z-score): -0.288
Gal(b1-4)Gal
  glycan array binding signal (z-score): -0.221
[33]
  glycan array binding signal (z-score): -0.29
[34]
  glycan array binding signal (z-score): -0.292
